The other results are listed elsewhere or left out.

For this test, the system named is T1, C. trachomatis L2/434/Bu expressing GFP (CTL2-GFP).
T1 construct: L2/434/Bu GFP intracellular growth in HeLa cells
Details: species or system HeLa; C. trachomatis total inclusion area by high-content imaging, normalised to DMSO. As to conditions: total inclusion area; 28.5 h, 10 µM; inhibitor. The gist of the method: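 Host cell viability was gauged from Hoechst-stained nuclei counts, while chlamydial growth was taken from total inclusion area and inclusion number per well. Cells were fixed and imaged by high-content microscopy once bulk GFP and resorufin fluorescence had been measured.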
Consider `O=C(Nc1ccc2[nH]ncc2c1)c1ccccc1Cl` [CBK000191], for which the “% of control remaining” value worked out at 102.536.

Turning to `Cc1n[nH]c(C)c1CCC(=O)N/N=C\c1ccc(Cl)c(Cl)c1` [CBK263395], the “% of control remaining” value is reported as 108.845.

`Cc1ccc(NCC2CCN(CC(=O)Nc3cc(C)on3)C2)nc1` (stereo not shown) [CBK306337]: the “% of control remaining” value is on record as 77.0844.

On to `O=S(=O)(c1ccc(OC(F)(F)F)cc1)N1CCN(Cc2ccc3c(c2)OCO3)CC1` [CBK200040], for which the “% of control remaining” value is listed as 98.513.

As to `Cn1cc(CN(Cc2ccccc2)CC2CCCO2)cn1` (stereo not shown) [CBK283233], the “% of control remaining” value is 110.015.

In the case of `Cc1cc(F)c(S(=O)(=O)N2CCN(C)CC2)cc1NC(=O)c1cc2ccccc2o1` [CBK034419C], the “% of control remaining” value was found to be 86.1167.

As for `Cc1cc2nc(C3CCCN3C(=O)CN3CCCCC3)[nH]c2cc1C` (stereo not shown) [CBK282944], the “% of control remaining” value is reported as 107.327.

`O=C(Nc1ccccc1Cl)N1CCCCC1CO` (stereo not shown) [CBK156180]: the “% of control remaining” value was determined as 100.625.

`COc1cc(CNC(=O)NC(=O)C2CCN(C(C)C)CC2)cc(OC)c1OC` [CBK034800]: the “% of control remaining” value amounted to 85.4183.

`Cc1cccc2sc(NC(=O)CCCCCNC(N)=O)nc12` [CBK296689]: the “% of control remaining” value was 109.407.

In the case of `Cc1nnc(SCc2cccc(Oc3ccccc3)c2)n1N` [CBK265714], the “% of control remaining” value stood at 106.959.

As for `O=C(CCc1cn2ccccc2n1)NCc1cc2n(n1)CCCNC2` [CBK307157], the “% of control remaining” value was determined as 82.971.

With `O=C(CN1C(=O)N2CCCN=C2c2ccccc21)N1CCCC1` [CBK284419], the “% of control remaining” value was 72.9901.

Turning to `O=C(/C=C/c1cccnc1)Nc1c(F)cc(F)cc1OC1CCNCC1` [CBK050324T], the “% of control remaining” value is recorded as 103.387.

For `O=C(O)C1N(Cc2ccccc2)CCCN1Cc1ccccc1` [CBK265196], the “% of control remaining” value is on record as 89.1806.

With `CCn1cc(CN(Cc2cccnc2)Cc2ccccc2OC)cn1` [CBK307224], the “% of control remaining” value is on record as 77.5882.

As to `COc1cccc(CN2CCC(C(=O)O)CC2)c1OC` [CBK286548], the “% of control remaining” value was determined as 48.4605.

Take `O=C(Cn1ccc(=O)[nH]c1=O)NCc1cccnc1OC1CCCC1` [CBK305582]: the “% of control remaining” value is on record as 86.6265.

`Cc1ccccc1C(=O)N1C[C@H]2NC(=O)c3ccccc3C(=O)[C@@]2(C)C1` [CBK285316]: the “% of control remaining” value came out at 78.8276.

As for `O=C(Nc1ccncc1)c1cc2cc(Cl)ccc2[nH]1` [CBK107340], the “% of control remaining” value is 95.1783.

On to `CCCCNC(=O)NC1CCCC1` [CBK027084], for which the “% of control remaining” value was found to be 62.9024.

For the compound `Cc1ncc(CN2CCOC(c3cc(C(=O)NCC(C)C)c4ccccc4n3)C2)s1` (stereo not shown) [CBK285897], the “% of control remaining” value is recorded as 114.219.

Turning to `Cc1nc2ccccc2n1C(F)(F)C(F)F` [CBK022023], the “% of control remaining” value was found to be 62.906.

As to `Cc1nc(CNCc2c(C)nn(C)c2N(C)C)cs1` [CBK304808], the “% of control remaining” value was 52.6159.

For `CCCn1c(SCC(=O)NCCN2C(=O)CSC2=O)n[nH]c1=O` [CBK296976], the “% of control remaining” value amounted to 117.248.

For the compound `Cc1nc(OCC(=O)O)c(C#N)c2c1COC(C)(C)C2` [CBK286810], the “% of control remaining” value was 71.7251.

Turning to `CCc1cc(C(=O)Nc2nn(C)c3cccc(N4CCOCC4)c23)cs1` [CBK307419], the “% of control remaining” value is given as 59.6038.

For `N#CC(C(=O)CN1CCN(Cc2ccccc2)CC1)c1ccccc1` (stereo not shown) [CBK269386], the “% of control remaining” value was determined as 102.166.

As for `CC(NC(=O)CSc1nnc(-c2ccc(Cl)cc2)n1-c1ccccc1)c1ccccc1` (stereo not shown) [CBK264993], the “% of control remaining” value came out at 109.437.

`Cc1cc(C)cc(NC(=O)CSc2ncnc3c2oc2ccccc23)c1` [CBK287394]: the “% of control remaining” value turned out to be 124.82.

`CCOC(=O)c1c(NC(=S)NC(=O)c2cccc(Cl)c2)sc2c1CCCC2` [CBK264045]: the “% of control remaining” value worked out at 103.173.

For the compound `Cc1cc(=O)oc2cc(NC(=S)NNC(=O)C3CCN(Cc4ccc(F)cc4Cl)CC3)ccc12` [CBK266953], the “% of control remaining” value is recorded as 122.425.

`Cc1nc2ccc(C(=O)NCC3CCCN(C(C)C)C3)cc2[nH]1` (stereo not shown) [CBK282475]: the “% of control remaining” value came out at 123.301.

In the case of `c1ccc(COc2ccccc2-c2cc(NCCc3ccccn3)ncn2)cc1` [CBK037826], the “% of control remaining” value came to 100.162.

As to `C=CCn1cc(CN2CCc3c(nc(C)[nH]c3=O)C2)c2ccccc21` [CBK283992], the “% of control remaining” value is given as 96.0494.

As to `O=C(CCCn1cccn1)N1CCOC(c2ccc(Cl)c(Cl)c2)C1` (stereo not shown) [CBK304640], the “% of control remaining” value is given as 100.252.

As to `Cc1ccc(-c2csc3ncn(Cc4ccccc4C)c(=O)c23)cc1C` [CBK099921], the “% of control remaining” value came out at 87.7575.

With `O=C(NCCCNC(=O)c1ccccn1)c1ccc(Cl)cc1` [CBK269193], the “% of control remaining” value came to 118.196.

`CCC(NC(=O)C1(Cn2ccnc2)CC1)c1ncccc1C` (stereo not shown) [CBK307046]: the “% of control remaining” value was 42.8989.

On to `CCn1cncc1CN1CC2CCCC(O)(c3ccc(F)cc3)C2C1` (stereo not shown) [CBK282119], for which the “% of control remaining” value is reported as 116.996.

As to `Cc1ccccc1Sc1ncccc1C(F)(F)F` [CBK115231], the “% of control remaining” value was found to be 88.2561.

As for `CN1CCCN(c2nccnc2-c2cccc(O)c2)CC1` [CBK088820], the “% of control remaining” value stood at 68.4775.

Take `COc1ccc(NC(=S)N2CCN(C/C=C/c3ccccc3)CC2)cc1OC` [CBK266891]: the “% of control remaining” value turned out to be 102.573.

For `CCN(CC)C(=O)c1ccc2[nH]ccc2c1` [CBK149072], the “% of control remaining” value is recorded as 97.3909.

`C[C@@H](Nc1cncc(-c2cccs2)n1)c1ccccc1` [CBK065711]: the “% of control remaining” value is given as 63.1631.

As to `CC(C)(CN(Cc1ccccc1)C(=O)/C=C/c1ccccc1)NC(=O)OC(C)(C)C` [CBK003266], the “% of control remaining” value turned out to be 33.5279.

For `Oc1cc2cccnc2nc1-c1cccc(C(F)(F)F)c1` [CBK073704], the “% of control remaining” value was found to be 74.4847.

Turning to `CC(C)C[C@@H]1NC(=O)C2(C/C=C/C[C@@H]3COCC[C@@H]3NC1=O)CCN(C(=O)[C@H](CO)NC(=O)OCc1ccccc1)CC2` [CBK292191], the “% of control remaining” value was determined as 107.682.

As to `CCOc1cccc(NC(=O)/C(C#N)=C\c2cc(OC)c(O)cc2Br)c1` [CBK263189], the “% of control remaining” value turned out to be 118.88.

As for `OC(COc1ccc(Br)cc1)CN1CCCN(c2nc3ccc(Cl)cc3s2)CC1` (stereo not shown) [CBK074643], the “% of control remaining” value is listed as 11.0645.

`c1cncc(C2N3CCC4(CC3)c3[nH]c5ccccc5c3CCN24)c1` (stereo not shown) [CBK284430]: the “% of control remaining” value was determined as 65.4979.

Regarding `COc1ccc(C2=NN(c3ccc([N+](=O)[O-])cc3)C(=O)/C2=C/NCc2ccccn2)cc1` [CBK265276], the “% of control remaining” value is 119.015.

Values taken from PMC12040169 (PLOS Biology, 2025).
